We go through 56 compounds from article PMC4336329 (PLoS ONE, 2015).

SMILES strings stand for the structures. About 14,000 (4.5%) of roughly 310,000 compounds showed an effect of 50% or more. Effects have a minus sign here. The list shows a part of the results.
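Also: peak tail current of the secondary pulse compared with the same well before compound.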

The experiment deals with human ether-à-go-go-related gene (hERG) potassium channel (human, UniProt Q12809). Description: primary screen, population patch clamp on CHO cells stably expressing hERG.
human ether-à-go-go-related gene (hERG) potassium channel, sequence (Q12809 whole entry, looked up): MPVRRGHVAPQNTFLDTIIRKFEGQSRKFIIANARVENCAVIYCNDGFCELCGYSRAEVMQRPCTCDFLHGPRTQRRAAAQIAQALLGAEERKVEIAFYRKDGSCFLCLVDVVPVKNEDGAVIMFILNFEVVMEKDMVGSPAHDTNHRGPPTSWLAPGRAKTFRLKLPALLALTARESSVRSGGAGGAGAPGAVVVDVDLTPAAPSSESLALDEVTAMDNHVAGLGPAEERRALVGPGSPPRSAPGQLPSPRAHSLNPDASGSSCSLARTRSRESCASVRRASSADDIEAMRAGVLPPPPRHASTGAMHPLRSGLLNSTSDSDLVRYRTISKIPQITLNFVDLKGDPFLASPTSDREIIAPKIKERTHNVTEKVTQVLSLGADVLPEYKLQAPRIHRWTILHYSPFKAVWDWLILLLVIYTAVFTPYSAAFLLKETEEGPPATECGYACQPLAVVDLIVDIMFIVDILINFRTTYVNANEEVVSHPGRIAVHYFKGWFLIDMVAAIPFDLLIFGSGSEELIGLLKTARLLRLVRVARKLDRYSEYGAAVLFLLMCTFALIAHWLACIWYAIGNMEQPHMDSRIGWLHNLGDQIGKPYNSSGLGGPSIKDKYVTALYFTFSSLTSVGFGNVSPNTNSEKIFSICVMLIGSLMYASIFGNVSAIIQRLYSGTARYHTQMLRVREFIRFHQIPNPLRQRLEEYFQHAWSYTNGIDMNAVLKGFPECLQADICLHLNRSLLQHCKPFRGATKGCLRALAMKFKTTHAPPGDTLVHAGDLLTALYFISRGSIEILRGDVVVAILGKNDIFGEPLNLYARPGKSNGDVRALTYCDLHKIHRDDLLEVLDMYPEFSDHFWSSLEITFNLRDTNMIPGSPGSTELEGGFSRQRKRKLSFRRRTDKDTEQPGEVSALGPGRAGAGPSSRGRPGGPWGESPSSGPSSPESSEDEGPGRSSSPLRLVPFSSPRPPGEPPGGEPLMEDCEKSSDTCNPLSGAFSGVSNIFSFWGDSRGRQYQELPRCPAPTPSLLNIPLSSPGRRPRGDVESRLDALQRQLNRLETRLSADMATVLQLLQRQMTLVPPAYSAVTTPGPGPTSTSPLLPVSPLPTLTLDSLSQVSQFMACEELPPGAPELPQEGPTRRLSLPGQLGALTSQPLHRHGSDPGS
Regarding `Cc1ccc(NC(=O)CN2C(=O)c3ccccc3C2=O)nc1`, the “hERG current change (%, negative = inhibition) at 10uM” value is given as 6.21%.

`Cc1c(NC(=O)CN2C(=O)NC(C)(c3ccccc3)C2=O)c(=O)n(-c2ccccc2)n1C` (centres unmarked): the “hERG current change (%, negative = inhibition) at 10uM” value came to 3.34%.

As for `CCOc1cc(C(=O)N/N=C/C(Br)=C/c2ccccc2)cc(OCC)c1OCC`, the “hERG current change (%, negative = inhibition) at 10uM” value was -11.8%.

As for `CC1(C)CC(=O)c2cc(OCC(=O)N3CCN(c4ccccc4F)CC3)ccc2O1`, the “hERG current change (%, negative = inhibition) at 10uM” value is recorded as -25.9%.

As to `Cc1cc(C)cc(N=Cc2[nH]c3ccc(Br)c(Cl)c3c2O)c1`, the “hERG current change (%, negative = inhibition) at 10uM” value is on record as 9.23%.

For `COc1cc(NC(=O)c2ccccc2)c(OC)cc1NC(=O)CN1CCCCC1.Cl`, the “hERG current change (%, negative = inhibition) at 10uM” value is -8.77%.

In the case of `CCCS(=O)(=O)N1CCc2cc(OC)c(OC)cc2C1`, the “hERG current change (%, negative = inhibition) at 10uM” value is listed as 10.2%.

`Cc1noc(C)c1COC(=O)C1CCN(S(=O)(=O)c2c(Cl)cccc2Cl)CC1`: the “hERG current change (%, negative = inhibition) at 10uM” value is -23.4%.

In the case of `CN(CC(=O)NCc1ccccn1)S(=O)(=O)c1ccc(Cl)cc1`, the “hERG current change (%, negative = inhibition) at 10uM” value is listed as -12%.

For `CC(=O)n1cc(/C=N/NC(N)=S)c2ccccc21`, the “hERG current change (%, negative = inhibition) at 10uM” value is given as -18.4%.

On to `CCOc1ccccc1OCC(=O)NCc1ccco1`, for which the “hERG current change (%, negative = inhibition) at 10uM” value is given as -1.25%.

Regarding `Cc1ccc([N+](=O)[O-])cc1NC(=O)CSc1nncn1-c1ccccn1`, the “hERG current change (%, negative = inhibition) at 10uM” value is -22.8%.

As for `Cc1cccc(NC(=S)NCc2cccn2C)c1`, the “hERG current change (%, negative = inhibition) at 10uM” value is -1.46%.

For the compound `CCCc1nc2scc(-c3ccccc3)c2c(=O)n1N`, the “hERG current change (%, negative = inhibition) at 10uM” value is recorded as -1.24%.

Regarding `COc1ccc(/C=C/C(=O)NNc2cc(=O)n(C)c(=O)n2C)cc1OC`, the “hERG current change (%, negative = inhibition) at 10uM” value is 11.5%.

Turning to `Cc1cccc(C(=O)C2CCOC(C)(C)C2)c1` (centres unmarked), the “hERG current change (%, negative = inhibition) at 10uM” value is reported as 13%.

Consider `N#CC1(NC(=O)CN2CCN(S(=O)(=O)c3ccccc3F)CC2)CCCC1`, for which the “hERG current change (%, negative = inhibition) at 10uM” value was -11.6%.

Regarding `CCC(C)(NC(=O)c1ccc(=O)[nH]c1)C(=O)NC1CCCC1` (centres unmarked), the “hERG current change (%, negative = inhibition) at 10uM” value amounted to 6.62%.

Consider `c1ccc(Cn2ccc(-c3cnc(-c4ccccc4)s3)n2)cc1`, for which the “hERG current change (%, negative = inhibition) at 10uM” value was determined as 13.2%.

In the case of `CCOc1ccc(-c2nnc3sc(COc4ccccc4)nn23)cc1`, the “hERG current change (%, negative = inhibition) at 10uM” value came out at 19%.

Take `Cc1ccsc1C(=O)C1CCCN(Cc2cn(C)nc2-c2ccccc2)C1` (centres unmarked): the “hERG current change (%, negative = inhibition) at 10uM” value is on record as -32.1%.

`COc1ccccc1NC(=O)C(=O)NNC(=O)c1ccco1`: the “hERG current change (%, negative = inhibition) at 10uM” value came out at 9.88%.

With `COc1cccc(NC(=O)Cn2c(=O)n(CCC(=O)NCc3ccco3)c(=O)c3ccccc32)c1`, the “hERG current change (%, negative = inhibition) at 10uM” value is reported as -12.3%.

On to `CN(C(=O)CSc1nc2ccccc2o1)C1CCS(=O)(=O)C1` (centres unmarked), for which the “hERG current change (%, negative = inhibition) at 10uM” value is recorded as -10.5%.

Regarding `C/C=C/C(=O)Nc1ccc(N2CCN(c3ccc(C(F)(F)F)cn3)CC2)nc1`, the “hERG current change (%, negative = inhibition) at 10uM” value came to 7.8%.

`COc1ccc(NC(=O)COc2ccc(C(=O)OCC(=O)N(C)C3CCS(=O)(=O)C3)cc2OC)cc1` (centres unmarked): the “hERG current change (%, negative = inhibition) at 10uM” value worked out at 8.02%.

Regarding `COc1cc(O)cc2c1[C@@H]1Oc3c(ccc(O)c3CC=C(C)C)[C@@H]1CO2`, the “hERG current change (%, negative = inhibition) at 10uM” value is given as -0.905%.

Take `CCN(CC)S(=O)(=O)c1ccc(C(=O)N2CCN(C3=NS(=O)(=O)c4ccccc43)CC2)cc1`: the “hERG current change (%, negative = inhibition) at 10uM” value is -18.4%.

As for `O=C(OCc1nc2scc(-c3ccccc3)c2c(=O)[nH]1)c1cccc([N+](=O)[O-])c1`, the “hERG current change (%, negative = inhibition) at 10uM” value is on record as 4.27%.

On to `O=c1c2ccccc2n2c(-c3cccc(Cl)c3)nnc2n1Cc1ccccc1`, for which the “hERG current change (%, negative = inhibition) at 10uM” value was -11.8%.

Turning to `CC(=O)c1cccc(NC(=O)CN(C)S(=O)(=O)c2ccc3c(c2)CC(C)N3C(C)=O)c1` (centres unmarked), the “hERG current change (%, negative = inhibition) at 10uM” value was 16.1%.

Turning to `COc1cc(/C=C2/SC(=S)N(CC(=O)O)C2=O)ccc1OC(=O)c1cccs1`, the “hERG current change (%, negative = inhibition) at 10uM” value amounted to 12.6%.

In the case of `O=C(c1cccnc1)N(Cc1ccccc1)c1ccccc1`, the “hERG current change (%, negative = inhibition) at 10uM” value was -23.4%.

Turning to `CCOCCCNC(=S)N(CCCN(C)C)Cc1cc2cc3c(cc2[nH]c1=O)OCCO3`, the “hERG current change (%, negative = inhibition) at 10uM” value came to 2.91%.

`O=C(Nc1cc(=O)[nH]c(=O)[nH]1)c1cc(Cl)ccc1Cl`: the “hERG current change (%, negative = inhibition) at 10uM” value is reported as 19.3%.

On to `Clc1cccc(Cl)c1CO/N=C/c1cccs1`, for which the “hERG current change (%, negative = inhibition) at 10uM” value is listed as 4.29%.

Consider `N#CC1=C(c2ccccc2)/C(=C/c2ccccc2)OC1=O`, for which the “hERG current change (%, negative = inhibition) at 10uM” value is 14.7%.

Take `O=C(NCc1ccccc1)NC1(C(=O)N2CCOCC2)CCCCC1`: the “hERG current change (%, negative = inhibition) at 10uM” value was determined as 1.43%.

As for `COc1ccc(S(=O)(=O)Nc2ccc3c(c2)OCCO3)cc1Cl`, the “hERG current change (%, negative = inhibition) at 10uM” value is reported as -30.1%.

Consider `Nc1ccc([N+](=O)[O-])cc1`, for which the “hERG current change (%, negative = inhibition) at 10uM” value is on record as 21.5%.

For `CNC(=S)NNC(=O)c1sc2cc(C(F)(F)F)cnc2c1-c1ccccn1`, the “hERG current change (%, negative = inhibition) at 10uM” value is on record as 13.6%.

For the compound `COC(=O)C1CCN(C(=O)COC(=O)Cc2c[nH]c3ccccc23)CC1`, the “hERG current change (%, negative = inhibition) at 10uM” value was 3.1%.

`CCOc1cccc(=O)c2c(C)n(-c3ccc(C(=O)O)cc3)c(C)c12`: the “hERG current change (%, negative = inhibition) at 10uM” value is 32%.

As for `CC1CN(C(=O)CCC(=O)N2CCN(c3cccc(C(F)(F)F)c3)CC2)c2ccccc2O1` (centres unmarked), the “hERG current change (%, negative = inhibition) at 10uM” value is given as -31.3%.

Turning to `CC1(C)Cc2c(cnn2-c2ccc(F)cc2)C(NC(=O)c2ccoc2)C1` (centres unmarked), the “hERG current change (%, negative = inhibition) at 10uM” value is recorded as -89.1%.

As for `O=C(NC(C(=O)c1ccccc1)N1CCCCC1)c1ccccc1` (centres unmarked), the “hERG current change (%, negative = inhibition) at 10uM” value is -7.34%.

Take `O=C(CCc1nnc2n(Cc3ccc(F)cc3)c(=O)c3ccccc3n12)NCCCN1CCOCC1`: the “hERG current change (%, negative = inhibition) at 10uM” value is -16.4%.

Regarding `COc1cc(C(=O)NC2CCN(Cc3ccccc3)CC2)cc(Cl)c1OC`, the “hERG current change (%, negative = inhibition) at 10uM” value is -44.3%.

Take `CC(OC(=O)/C=C/c1ccco1)C(=O)NC1CCCCC1C` (centres unmarked): the “hERG current change (%, negative = inhibition) at 10uM” value was -3.2%.

`CC1(c2ccccc2)NC(=O)N(CC(=O)N2CCOCC2)C1=O` (centres unmarked): the “hERG current change (%, negative = inhibition) at 10uM” value was 3.77%.

For `O=C(CCCSc1ccc(Cl)cc1)Nc1ccccc1O`, the “hERG current change (%, negative = inhibition) at 10uM” value stood at 18.1%.

With `O=C(c1ccc(F)cc1)N1CCN(c2ccc([N+](=O)[O-])c(N3CCCCC3)c2)CC1`, the “hERG current change (%, negative = inhibition) at 10uM” value is -15.3%.

Take `Cc1cccc(C)c1NC1=C(Cl)C(=O)OC1OC(C)C` (centres unmarked): the “hERG current change (%, negative = inhibition) at 10uM” value is on record as 21.2%.

Consider `O=C(Nc1nccs1)c1cn2ccccc2n1`, for which the “hERG current change (%, negative = inhibition) at 10uM” value is given as 7.71%.

For `COc1ccc(C(=O)CCC(=O)NCCc2c[nH]c3ccccc23)cc1`, the “hERG current change (%, negative = inhibition) at 10uM” value is reported as 34.4%.

Take `CC(=O)N1CCN(c2ccnc3cc(Cl)ccc23)CC1`: the “hERG current change (%, negative = inhibition) at 10uM” value is -50.4%.
